Assay results reported in the supplement of paper PMC4967469.
Lines with a small IC50 respond at low doses; a limit (>, <) means that the fit lies beyond the doses tested. AUC is the area under the same curve over the 256-fold range up to the top dose, as a fraction; values near 1 show little effect. For some of these results: Any top dose called inferred is not printed in the source and was worked back from the curve model.

Key:
Experiment in all cases: Viability of human cancer cell lines after 72 h of drug (GDSC screen)
[1] = compound: CCN(CC)CCCCNc1ncc2cc(-c3cc(OC)cc(OC)c3)c(NC(=O)NC(C)(C)C)nc2n1 [PD-173074]; conditions: top dose 2 µM; top dose inferred
Description: (§1)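 Human cancer cell lines in 384-well plates, medium with 10% serum, drug for 72 h over a 256-fold dose range (nine 2-fold or five 4-fold steps up to the top dose). Adherent lines were fixed and stained with the nucleic acid dye Syto60, suspension lines read with resazurin; signal relative to control wells, capped at 0 and 100%. One two-parameter sigmoid per drug and line, fitted in a mixed model over all curves with the slope shared within a line.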

[2] = compound: CN(C)CCOc1ccc(-c2nc(-c3ccncc3)c(-c3ccc4c(c3)CC/C4=N\O)[nH]2)cc1 [SB590885]; conditions: top dose 5 µM; top dose inferred
Description: as §1

[3] = compound: Cc1cc(C(C)Nc2ccccc2)c2nc(N3CCOCC3)cc(=O)n2c1 [TGX221]; conditions: top dose 10 µM
Description: as §1

[4] = compound: CS(=O)(=O)CCNCc1ccc(-c2ccc3ncnc(Nc4ccc(OCc5cccc(F)c5)c(Cl)c4)c3c2)o1 [Lapatinib]; conditions: top dose 2 µM
Description: as §1

Row | Cell Line | AUC [1] | IC50 [1] [µM] | AUC [2] | IC50 [2] [µM] | AUC [3] | IC50 [3] [µM] | AUC [4] | IC50 [4] [µM]
1 | A3-KAW (B-cell lymphoma, suspension) | 0.993 | > 2 | 0.992 | > 5 | 0.993 | > 10 | 0.991 | > 2
2 | A4-Fuk (B-cell lymphoma, suspension) | 0.737 | 0.614 | 0.986 | > 5 | 0.981 | > 10 | 0.957 | > 2
3 | A101D (melanoma, adherent) | 0.892 | > 2 | 0.683 | 1.15 | 0.806 | 6.54 | 0.942 | > 2
4 | A253 (head and neck, adherent) | 0.989 | > 2 | 0.989 | > 5 | 0.985 | > 10 | 0.813 | 1.04
5 | A388 (skin, adherent) | 0.984 | > 2 | 0.961 | > 5 | 0.97 | > 10 | 0.749 | 0.734
6 | ALL-PO (lymphoblastic leukaemia, suspension) | 0.897 | > 2 | 0.947 | > 5 | 0.933 | > 10 | 0.971 | > 2
7 | ALL-SIL (T-cell leukaemia, suspension) | 0.978 | > 2 | 0.987 | > 5 | 0.985 | > 10 | 0.989 | > 2
8 | AM-38 (glioma, semi-adherent) | 0.984 | > 2 | 0.988 | > 5 | 0.985 | > 10 | 0.988 | > 2
9 | AMO-1 (haematopoietic neoplasm, suspension) | 0.989 | > 2 | 0.991 | > 5 | 0.991 | > 10 | 0.985 | > 2
10 | ARH-77 (myeloma, suspension) | 0.968 | > 2 | 0.971 | > 5 | 0.924 | > 10 | 0.983 | > 2
11 | ATN-1 (T-cell lymphoblastic leukaemia, suspension) | 0.845 | 1.31 | 0.784 | 1.97 | 0.981 | > 10 | 0.984 | > 2
12 | BB30-HNC (head and neck, adherent) | 0.965 | > 2 | 0.921 | > 5 | 0.958 | > 10 | 0.579 | 0.204
13 | BB49-HNC (head and neck, adherent) | 0.948 | > 2 | 0.976 | > 5 | 0.26 | 0.095 | 0.967 | > 2
14 | BC-1 (B-cell lymphoma, suspension) | 0.987 | > 2 | 0.982 | > 5 | 0.961 | > 10 | 0.967 | > 2
15 | BE2-M17 (neuroblastoma, adherent) | 0.909 | > 2 | 0.967 | > 5 | 0.981 | > 10 | 0.985 | > 2
16 | BE-13 (lymphoblastic leukaemia, suspension) | 0.885 | 1.94 | 0.94 | > 5 | 0.987 | > 10 | 0.971 | > 2
17 | BL-41 (Burkitt lymphoma, suspension) | 0.994 | > 2 | 0.994 | > 5 | 0.968 | > 10 | 0.979 | > 2
18 | BV-173 (chronic myeloid leukaemia, suspension) | 0.905 | > 2 | 0.891 | 4.63 | 0.981 | > 10 | 0.985 | > 2
19 | Becker (glioma, adherent) | 0.979 | > 2 | 0.973 | > 5 | 0.449 | 0.447 | 0.948 | > 2
20 | C2BBe1 (large intestine, adherent) | 0.96 | > 2 | 0.812 | 3.13 | 0.641 | 1.62 | 0.97 | > 2
21 | CA46 (Burkitt lymphoma, suspension) | 0.975 | > 2 | 0.979 | > 5 | 0.978 | > 10 | 0.954 | > 2
22 | CAS-1 (glioma, adherent) | 0.922 | > 2 | 0.982 | > 5 | 0.694 | 2.7 | 0.971 | > 2
23 | CCRF-CEM (lymphoblastic leukaemia, suspension) | 0.957 | > 2 | 0.922 | > 5 | 0.99 | > 10 | 0.987 | > 2
24 | CESS (acute myeloid leukaemia, suspension) | 0.987 | > 2 | 0.99 | > 5 | 0.985 | > 10 | 0.986 | > 2
25 | CGTH-W-1 (thyroid, adherent) | 0.934 | > 2 | 0.985 | > 5 | 0.981 | > 10 | 0.986 | > 2
26 | CHP-126 (neuroblastoma, suspension) | 0.987 | > 2 | 0.987 | > 5 | 0.987 | > 10 | 0.97 | > 2
